Experimental data reported in ChEMBL document CHEMBL4888484, “Replenishing the malaria drug discovery pipeline: Screening and hit evaluation of the MMV Hit Generation Library 1 (HGL1) against asexual blood stage Plasmodium falciparum ,using a nano luciferase reporter read-out” (2022).
Screen size: about 4,800 compounds; about 410 (8.5%) showed an effect of 50% or more. Some of the results follow.

tested on: Plasmodium falciparum; test: Confirmatory screen in NF54 pLDH assay, in single point, at 2uM, 72h; type: functional, Erythrocyte; conditions: timepoint 72 hour

Row | Compound | % Inhibition
1 | O=C(Cc1ccc(N(Cc2cccc(F)c2)C(=O)C2CCCC2)cc1)NCCN1CCCC1 | 31%
2 | CCOC1CC(NC2CC(c3ccc(F)cc3)C2)C12CCC2 (centres undefined) | 45%
3 | Cc1cc(N)nc(Nc2ccc(Nc3ccccc3)cc2)n1 | 97%
4 | CCn1c(=O)c(N2CCC[C@H](C(=O)NCCc3c[nH]c4ccccc34)C2)nc2ccccc21 | 9%
5 | CC(=O)N1CC[C@H](CC(=O)N(C)Cc2ccccc2)C1 | 0%
6 | CN(C)CCNCc1ccc(Cl)c(Cl)c1 | -14%
7 | O=c1ccn2c(n1)O[C@H]1[C@H](OC3CCCCO3)[C@@H](COC3CCCCO3)O[C@H]12 (some centres undefined) | -17%
8 | Cc1ccc(CN2CCN(CC(=O)NC3CCCCCCC3)C2=O)cc1 | -5%
9 | COC(=O)N1CC[C@H](NC(=O)OC(C)(C)C)C1 | 10%
10 | Cc1cc(C(=O)N(CCN(C)C)c2ccccc2)c(C)s1 | 6%
11 | Cn1ncnc1CCNC(=O)NC(C1CCCC1)C1CCCC1 | 11%
12 | CC(C)C(=O)NC1CCN(c2nc(Cc3ccc(F)cc3)no2)CC1 | 16%
13 | Cc1nc(-c2ccc(C(F)(F)F)cc2)nc(N2CCN(C(=O)c3cc(C(F)(F)F)cc(C(F)(F)F)c3)CC2)c1C(C)C | 7%
14 | c1ccc(CC2CCN(c3[nH]cnc4ncnc3-4)CC2)cc1 | 11%
15 | Cc1c(CCO)c(=O)n(-c2ccccc2)n1S(=O)(=O)c1c(Cl)cc(Cl)cc1Cl | 11%
16 | CCOc1ccc(NC(=O)N(Cc2cn(CC)c3ccccc23)[C@@H](C)CC)cc1 | -14%
17 | Cc1csc(C(C)(C)NC(=O)NCCC2=CCCC2)n1 | -7%
18 | O=C(Cn1cnc2cc3c(cc21)OCCCO3)N1CCc2ccccc21 | 12%
19 | CC[C@@H](CO)NCc1cc(Br)ccc1OC | -6%
20 | CC[n+]1c(C)sc2cc(-c3ccccc3)sc21 | 0%
21 | COC(=O)c1nc(NC(=O)C2(C)CCCC2)sc1C(C)C | -9%
22 | CCOC(=O)c1c(CN(C)C)n(-c2ccc(OC)cc2)c2ccc(Oc3nccc(Nc4ccc(C)cc4)c3C#N)cc12 | 3%

Row | Compound | % Inhibition
23 | O=S1(=O)CC[C@H](NS(=O)(=O)c2ccc3c(c2)OCCO3)C1 | -16%
24 | COc1ccc(-c2nn3c(Cc4ccccn4)nnc3s2)cc1OC | 14%
25 | CN(C)S(=O)(=O)N(CCN1CCCC1)[C@H]1CCN(C(=O)CCC2CCCC2)C1 | 12%
26 | COC1(C)CC(NC(=O)C(C(C)C)N2CCCS2(=O)=O)C1(C)C (centres undefined) | -2%
27 | Cc1cc(NC(=O)CS(=O)(=O)Cc2c(C)noc2C)no1 | -19%
28 | CC(C)(C)OC(=O)NC1CCC(N2C(=O)CCC2=O)CC1 (centres undefined) | 2%
29 | Cc1cc(=O)n2ncc(C(=O)NCc3cc(F)cc(F)c3)c2[nH]1 | -18%
30 | O=C1CCCc2nc3[nH]n(-c4ccccc4)c(=O)c3cc21 | 13%
31 | Cc1cc(S(=O)(=O)N(C)Cc2ccco2)cc2c1NC(=O)C2(C)C | 13%
32 | COc1cccc(CNCc2ccc3c(c2)OCO3)c1OCc1ccc(Cl)cc1Cl | 10%
33 | Cc1cc(C)c2ccc3ccccc3c2n1 | 13%
34 | Cn1c(N)c(S(=O)(=O)N2CCN(c3ccccc3Cl)CC2)c(=O)n(C)c1=O | 10%
35 | CC(C)c1cccc(CN2C(=O)N[C@]3(CC(C)(C)OC3(C)C)C2=O)n1 | -15%
36 | O=C(Cn1nnc2ccccc21)N(Cc1cccnc1)C1(C(=O)Nc2ccc3c(c2)OCO3)CCCCC1 | -3%
37 | COc1ccccc1OCc1nn2c([C@H]3CCCN(S(C)(=O)=O)C3)nnc2s1 | 5%
38 | Cc1n(CC(=O)c2ccccc2)c2ccccc2[n+]1CC(=O)c1ccccc1 | 66%
39 | CC(C)Cn1c(=O)c2sccc2n(CC(=O)N2CCCC2)c1=O | 12%
40 | CCN(C(C)=O)c1ccc(Cl)cc1F | -19%
41 | CCC(=O)N1CCN(S(=O)(=O)c2ccc(C)cc2)[C@H]1C | 10%
42 | Cc1cc(C)nc(N[C@H](c2ccc(F)cc2)c2cc(C)sc2NC(=O)c2ccccc2)n1 | 6%
43 | O=C(C[C@@H]1CCNC[C@@H]1Cc1cc(COc2ccccc2)on1)NCc1ccc(F)cc1 | 15%
44 | O=S(=O)(c1ccc(F)cc1)n1ccc(-c2cccc(OCc3ccc(Cl)cc3Cl)c2)n1 | 7%

Row | Compound | % Inhibition
45 | Cc1ccc2nc(-c3cccc(NC(=O)c4ccc5c(c4)OCO5)c3)oc2c1 | -7%
46 | Cc1cc(-c2ccccc2)nc(O)c1S(C)(=O)=O | 6%
47 | COc1cc2c(cc1OC)C(Nc1cc(C)ccc1C)=NC(C)(C)C2 | -3%
48 | CC1=NN(c2nc(C)cc(O)n2)C(=O)C1 | -6%
49 | Cc1nc(CNC(=O)Nc2ccc(Br)c(C)n2)no1 | 11%
50 | CN1CCN(S(=O)(=O)c2ccc(F)c(F)c2)C[C@H]1c1ccccc1 | 5%
51 | CCCCN1C(=O)[C@H]2[C@H]([C@H](O)c3ccc(Cl)cc3)N[C@@]3(C(=O)Nc4ccccc43)[C@H]2C1=O | 1%
52 | COc1ccc(CNc2ncc(-c3ccc(C)c(C)c3)n2C)cc1OCc1ccccc1 | -9%
53 | CC1C(Cc2ccccc2)CCN1C(=O)c1cnc(C(F)(F)F)nc1 (centres undefined) | 14%
54 | Cc1ccc(NC(=O)CN2CCC3(CC2)NC(c2ccc(OC(F)(F)F)cc2)=NO3)c(C)c1 | 1%
55 | OC(CC1COCCN1)c1ccccc1 (centres undefined) | 11%
56 | CCOC(=O)c1cc(-c2ccccc2)n(NC(=O)COc2ccc(Cl)cc2)c1C | -9%
57 | O=C(CNc1ccccc1N1CCCCC1)NC1CCCCCC1 | -7%
58 | Cc1ccc(-c2nn3c([C@H]4CCCN(C)C4)nnc3s2)cc1C | -8%
59 | O=C(CN1CCC2(CC1)NC(=O)N(Cc1ccc(Cl)cc1)C2=O)Nc1ccc(F)cc1F | 8%
60 | O=C(Nc1nc2ccccc2[nH]1)C1CCN(c2cc3c(nn2)CCC3)CC1 | 9%
61 | c1ccc(-c2cn(-c3ccccc3)c3ncnc(N4CCCC4)c23)cc1 | 13%
62 | Cc1ccccc1S(=O)(=O)N1CCN(c2c(C)n(-c3ccccc3)c(=O)n(C)c2=O)CC1 | 9%
63 | CCN(C(=O)CCn1cnc2ccccc2c1=O)c1ccc2[nH]ccc2c1 | 5%
64 | CC1CC(N)CCN1C(=O)c1cccc(-c2noc(C3CC3)n2)c1 (centres undefined) | -5%
